# The list shows a part of the results.
# B1: SSA (Sclerotinia sclerotiorum), A7XUK7 (protein)
# chain: MGFKGVGTYEIVPYQAPSLNLNAWEGKLEPGAVVRTYTRGDKPSDNAKWQVALVAGSGDSAEYLIINVHSGYFLTATKENHIVSTPQISPTDPSARWTIKPATTHQYEVFTINNKVSELGQLTVKDYSTHSGADVLSASAKTADNQKWYFDAK
# How the values were obtained:
# Test in all cases: glycan array binding signal (z-score within array); higher = stronger binding
# Details in all cases: glycan notation: IUPAC condensed, linker removed
# [1] = target: Neu5Ac(a2-6)Gal(b1-4)GlcNAc(b1-2)Man(a1-3)[GlcNAc(b1-2)Man(b1-4)GlcNAc(b1-2)Man(a1-6)]Man(b1-4)GlcNAc(b1-4)GlcNAc
# Method in brief: (§1)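 The Consortium for Functional Glycomics database supplied 3228 glycan arrays, of which those lacking an available protein sequence were dropped. The binding signal, a within-array Z-score, was averaged across arrays of the same protein sequence and across linkers. Negative scores can be read as non-binding.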
# [2] = target: Neu5Ac(a2-6)Gal(b1-4)GlcNAc(b1-2)Man(a1-3)[Man(a1-6)]Man(b1-4)GlcNAc(b1-4)GlcNAc
# Method in brief: as §1
# [3] = target: Neu5Ac(a2-6)Gal(b1-4)GlcNAc(b1-2)Man(a1-3)[Neu5Ac(a2-6)Gal(b1-4)GlcNAc(b1-2)Man(a1-6)]Man(b1-4)GlcNAc(b1-4)GlcNAc
# Method in brief: as §1
# [4] = target: Neu5Ac(a2-6)Gal(b1-4)GlcNAc(b1-2)Man(a1-6)Man(b1-4)GlcNAc(b1-4)GlcNAc
# Method in brief: as §1
# [5] = target: Neu5Ac(a2-6)Gal(b1-4)GlcNAc(b1-2)Man(a1-6)[Gal(b1-4)GlcNAc(b1-2)Man(a1-3)]Man(b1-4)GlcNAc(b1-4)GlcNAc
# Method in brief: as §1
# [6] = target: Neu5Ac(a2-6)Gal(b1-4)GlcNAc(b1-2)Man(a1-6)[GlcNAc(b1-2)Man(a1-3)]Man(b1-4)GlcNAc(b1-4)GlcNAc
# Method in brief: as §1
# [7] = target: Neu5Ac(a2-6)Gal(b1-4)GlcNAc(b1-2)Man(a1-6)[Man(a1-3)]Man(b1-4)GlcNAc(b1-4)GlcNAc
# Method in brief: as §1
# [8] = target: Neu5Ac(a2-6)Gal(b1-4)GlcNAc(b1-3)Gal(b1-3)GlcNAc
# Method in brief: as §1
# [9] = target: Neu5Ac(a2-6)Gal(b1-4)GlcNAc(b1-3)Gal(b1-4)GlcNAc
# Method in brief: as §1
# [10] = target: Neu5Ac(a2-6)Gal(b1-4)GlcNAc(b1-3)Gal(b1-4)GlcNAc(b1-3)Gal(b1-4)GlcNAc
# Method in brief: as §1
# [11] = target: Neu5Ac(a2-6)Gal(b1-4)GlcNAc(b1-3)Gal(b1-4)[Fuc(a1-3)]GlcNAc(b1-3)Gal(b1-4)[Fuc(a1-3)]GlcNAc
# Method in brief: as §1
# [12] = target: Neu5Ac(a2-6)Gal(b1-4)GlcNAc(b1-3)GalNAc
# Method in brief: as §1
# [13] = target: Neu5Ac(a2-6)Gal(b1-4)GlcNAc6S
# Method in brief: as §1
# Neu5Ac(a2-6)GalNAc = target: Neu5Ac(a2-6)GalNAc
# Method in brief: as §1
# [14] = target: Neu5Ac(a2-6)GalNAc(b1-4)GlcNAc
# Method in brief: as §1
# [15] = target: Neu5Ac(a2-6)GlcNAc(b1-4)GlcNAc
# Method in brief: as §1
# [16] = target: Neu5Ac(a2-6)GlcNAc(b1-4)GlcNAc(b1-4)GlcNAc
# Method in brief: as §1
# Neu5Ac(a2-8)Neu5Ac = target: Neu5Ac(a2-8)Neu5Ac
# Method in brief: as §1
# [17] = target: Neu5Ac(a2-8)Neu5Ac(a2-3)Gal(b1-4)Glc
# Method in brief: as §1
# [18] = target: Neu5Ac(a2-8)Neu5Ac(a2-3)[GalNAc(b1-4)]Gal(b1-4)Glc
# Method in brief: as §1
# [19] = target: Neu5Ac(a2-8)Neu5Ac(a2-8)Neu5Ac
# Method in brief: as §1
# [20] = target: Neu5Ac(a2-8)Neu5Ac(a2-8)Neu5Ac(a2-3)Gal(b1-4)Glc
# Method in brief: as §1
# [21] = target: Neu5Ac(a2-8)Neu5Ac(a2-8)Neu5Ac(a2-3)[GalNAc(b1-4)]Gal(b1-4)Glc
# Method in brief: as §1
# [22] = target: Neu5Ac(a2-8)Neu5Ac(a2-8)Neu5Ac(a2-8)Neu5Ac(a2-3)[GalNAc(b1-4)]Gal(b1-4)Glc
# Method in brief: as §1
# Neu5Ac(b1-6)GalNAc = target: Neu5Ac(b1-6)GalNAc
# Method in brief: as §1
# [23] = target: Neu5Ac(b2-6)Gal(b1-4)GlcNAc
# Method in brief: as §1
# Neu5Ac(b2-6)GalNAc = target: Neu5Ac(b2-6)GalNAc
# Method in brief: as §1
# [24] = target: Neu5Ac9Ac(a2-3)Gal(b1-3)GlcNAc
# Method in brief: as §1
# [25] = target: Neu5Ac9Ac(a2-3)Gal(b1-4)GlcNAc
# Method in brief: as §1
# [26] = target: Neu5Ac9Ac(a2-6)Gal(b1-4)GlcNAc
# Method in brief: as §1
# [27] = target: Neu5Gc(a2-3)Gal(b1-3)GlcNAc
# Method in brief: as §1
# [28] = target: Neu5Gc(a2-3)Gal(b1-3)[Fuc(a1-4)]GlcNAc
# Method in brief: as §1
# Neu5Gc(a2-3)Gal(b1-4)Glc = target: Neu5Gc(a2-3)Gal(b1-4)Glc
# Method in brief: as §1
# [29] = target: Neu5Gc(a2-3)Gal(b1-4)GlcNAc
# Method in brief: as §1
# [30] = target: Neu5Gc(a2-3)Gal(b1-4)[Fuc(a1-3)]GlcNAc
# Method in brief: as §1
# [31] = target: Neu5Gc(a2-6)Gal(b1-4)GlcNAc
# Method in brief: as §1
# Neu5Gc(a2-6)GalNAc = target: Neu5Gc(a2-6)GalNAc
# Method in brief: as §1
# [32] = target: Neu5Gc(b2-6)Gal(b1-4)GlcNAc
# Method in brief: as §1
binder,measurement,setting,value
B1,glycan array binding signal (z-score),[1],-0.314
same,glycan array binding signal (z-score),[2],0.429
same,glycan array binding signal (z-score),[3],-0.226
same,glycan array binding signal (z-score),[4],-0.289
same,glycan array binding signal (z-score),[5],-0.252
same,glycan array binding signal (z-score),[6],-0.157
same,glycan array binding signal (z-score),[7],-0.249
same,glycan array binding signal (z-score),[8],-0.157
same,glycan array binding signal (z-score),[9],-0.31
same,glycan array binding signal (z-score),[10],0.022
same,glycan array binding signal (z-score),[11],-0.28
same,glycan array binding signal (z-score),[12],0.402
same,glycan array binding signal (z-score),[13],-0.34
same,glycan array binding signal (z-score),Neu5Ac(a2-6)GalNAc,-0.266
same,glycan array binding signal (z-score),[14],-0.208
same,glycan array binding signal (z-score),[15],-0.09
same,glycan array binding signal (z-score),[16],-0.205
same,glycan array binding signal (z-score),Neu5Ac(a2-8)Neu5Ac,-0.215
same,glycan array binding signal (z-score),[17],-0.07
same,glycan array binding signal (z-score),[18],-0.295
same,glycan array binding signal (z-score),[19],-0.257
same,glycan array binding signal (z-score),[20],-0.386
same,glycan array binding signal (z-score),[21],-0.369
same,glycan array binding signal (z-score),[22],-0.112
same,glycan array binding signal (z-score),Neu5Ac(b1-6)GalNAc,-0.458
same,glycan array binding signal (z-score),[23],-0.415
same,glycan array binding signal (z-score),Neu5Ac(b2-6)GalNAc,-0.258
same,glycan array binding signal (z-score),[24],-0.168
same,glycan array binding signal (z-score),[25],-0.177
same,glycan array binding signal (z-score),[26],-0.29
same,glycan array binding signal (z-score),[27],-0.331
same,glycan array binding signal (z-score),[28],-0.367
same,glycan array binding signal (z-score),Neu5Gc(a2-3)Gal(b1-4)Glc,-0.187
same,glycan array binding signal (z-score),[29],-0.366
same,glycan array binding signal (z-score),[30],-0.184
same,glycan array binding signal (z-score),[31],-0.202
same,glycan array binding signal (z-score),Neu5Gc(a2-6)GalNAc,-0.25
same,glycan array binding signal (z-score),[32],-0.243

# Reference: the supplement of paper PMC8728848
